# Results reported in the supplement of paper PMC8728848.
# The other results are listed elsewhere or left out.
# B1: SP15308A-bot-339-19-339 (Bacteroides ovatus) (protein)
# chain: ACNNEWEDEQYEQYISFKSPIPAGGEGVTDIYVRYKEDGKVTYRLPIVVSGSTTNTLDREVHIAVDKDTLETLNIERFSIHRPGLWYTALEEDKYDFPKTVHISAGSSVEQLNIDFNLQGIDMLEKWVLPLTIVDDPSYNYKSHPRKNYAKALLRVIPFNNYSGSYTSSAMKVYTYINGKPDTNARTANKRTGYVINDNTVFFYAGLISEDLDKEVREKYKINVHFNEDGTLHMEQGDPTNKMKFELIGTPTYSKTSVMDATRPYLERRYVQIMFEYDFEDFSYGGNGVDVIPIKYKVEGSMTLQRNINTQIPDEDQQIEW
# Legend:
# Experiment in all cases: glycan array binding signal (z-score within array); higher = stronger binding
# Settings in all cases: glycan notation: IUPAC condensed, linker removed
# [1] = target: GlcNAc(b1-3)Gal(b1-4)GlcNAc(b1-3)Gal(b1-4)GlcNAc(b1-2)Man(a1-3)[GlcNAc(b1-3)Gal(b1-4)GlcNAc(b1-3)Gal(b1-4)GlcNAc(b1-2)Man(a1-6)]Man(b1-4)GlcNAc(b1-4)[Fuc(a1-6)]GlcNAc
# Procedure, shortened: (§1)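 Glycan array binding is given as a within-array Z-score, which can be read as non-binding when negative. The arrays, 3228 of them, came from the Consortium for Functional Glycomics database and were retained only where the protein sequence was available. Z-scores were averaged across arrays of the same protein sequence at different concentrations or buffers and across linkers.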
# [2] = target: GlcNAc(b1-3)Gal(b1-4)GlcNAc(b1-3)Gal(b1-4)GlcNAc(b1-2)[GlcNAc(b1-3)Gal(b1-4)GlcNAc(b1-3)Gal(b1-4)GlcNAc(b1-6)]Man(a1-6)[GlcNAc(b1-3)Gal(b1-4)GlcNAc(b1-3)Gal(b1-4)GlcNAc(b1-2)Man(a1-3)]Man(b1-4)GlcNAc(b1-4)[Fuc(a1-6)]GlcNAc
# Procedure, shortened: as §1
# [3] = target: GlcNAc(b1-3)Gal(b1-4)GlcNAc(b1-3)Gal(b1-4)GlcNAc(b1-3)Gal(b1-4)GlcNAc(b1-2)Man(a1-3)[GlcNAc(b1-3)Gal(b1-4)GlcNAc(b1-3)Gal(b1-4)GlcNAc(b1-3)Gal(b1-4)GlcNAc(b1-2)Man(a1-6)]Man(b1-4)GlcNAc(b1-4)GlcNAc
# Procedure, shortened: as §1
# [4] = target: GlcNAc(b1-3)Gal(b1-4)GlcNAc(b1-3)Gal(b1-4)GlcNAc(b1-3)Gal(b1-4)GlcNAc(b1-2)Man(a1-3)[GlcNAc(b1-3)Gal(b1-4)GlcNAc(b1-3)Gal(b1-4)GlcNAc(b1-3)Gal(b1-4)GlcNAc(b1-2)Man(a1-6)]Man(b1-4)GlcNAc(b1-4)[Fuc(a1-6)]GlcNAc
# Procedure, shortened: as §1
# [5] = target: GlcNAc(b1-3)Gal(b1-4)GlcNAc(b1-3)Gal(b1-4)GlcNAc(b1-3)Gal(b1-4)GlcNAc(b1-2)[GlcNAc(b1-3)Gal(b1-4)GlcNAc(b1-3)Gal(b1-4)GlcNAc(b1-3)Gal(b1-4)GlcNAc(b1-6)]Man(a1-6)[GlcNAc(b1-3)Gal(b1-4)GlcNAc(b1-3)Gal(b1-4)GlcNAc(b1-3)Gal(b1-4)GlcNAc(b1-2)Man(a1-3)]Man(b1-4)GlcNAc(b1-4)[Fuc(a1-6)]GlcNAc
# Procedure, shortened: as §1
# [6] = target: GlcNAc(b1-3)Gal(b1-4)GlcNAc(b1-3)Gal(b1-4)GlcNAc(b1-3)Gal(b1-4)GlcNAc(b1-3)Gal(b1-4)GlcNAc(b1-2)Man(a1-3)[GlcNAc(b1-3)Gal(b1-4)GlcNAc(b1-3)Gal(b1-4)GlcNAc(b1-3)Gal(b1-4)GlcNAc(b1-3)Gal(b1-4)GlcNAc(b1-2)Man(a1-6)]Man(b1-4)GlcNAc(b1-4)GlcNAc
# Procedure, shortened: as §1
# [7] = target: GlcNAc(b1-3)Gal(b1-4)GlcNAc(b1-3)Gal(b1-4)GlcNAc(b1-3)Gal(b1-4)GlcNAc(b1-3)Gal(b1-4)GlcNAc(b1-2)Man(a1-3)[GlcNAc(b1-3)Gal(b1-4)GlcNAc(b1-3)Gal(b1-4)GlcNAc(b1-3)Gal(b1-4)GlcNAc(b1-3)Gal(b1-4)GlcNAc(b1-2)Man(a1-6)]Man(b1-4)GlcNAc(b1-4)[Fuc(a1-6)]GlcNAc
# Procedure, shortened: as §1
# [8] = target: GlcNAc(b1-3)Gal(b1-4)GlcNAc(b1-3)Gal(b1-4)GlcNAc(b1-3)Gal(b1-4)GlcNAc(b1-3)Gal(b1-4)GlcNAc(b1-2)[GlcNAc(b1-3)Gal(b1-4)GlcNAc(b1-3)Gal(b1-4)GlcNAc(b1-3)Gal(b1-4)GlcNAc(b1-3)Gal(b1-4)GlcNAc(b1-6)]Man(a1-6)[GlcNAc(b1-3)Gal(b1-4)GlcNAc(b1-3)Gal(b1-4)GlcNAc(b1-3)Gal(b1-4)GlcNAc(b1-3)Gal(b1-4)GlcNAc(b1-2)Man(a1-3)]Man(b1-4)GlcNAc(b1-4)[Fuc(a1-6)]GlcNAc
# Procedure, shortened: as §1
# [9] = target: GlcNAc(b1-3)Gal(b1-4)GlcNAc(b1-3)Gal(b1-4)GlcNAc(b1-3)GalNAc
# Procedure, shortened: as §1
# [10] = target: GlcNAc(b1-3)Gal(b1-4)GlcNAc(b1-3)GalNAc
# Procedure, shortened: as §1
# [11] = target: GlcNAc(b1-3)Gal(b1-4)GlcNAc(b1-3)[GlcNAc(b1-3)Gal(b1-4)GlcNAc(b1-3)]GalNAc
# Procedure, shortened: as §1
# [12] = target: GlcNAc(b1-3)Gal(b1-4)GlcNAc(b1-6)[Gal(b1-3)]GalNAc
# Procedure, shortened: as §1
# [13] = target: GlcNAc(b1-3)Gal(b1-4)GlcNAc(b1-6)[GlcNAc(b1-3)Gal(b1-3)]GalNAc
# Procedure, shortened: as §1
# [14] = target: GlcNAc(b1-3)Gal(b1-4)GlcNAc(b1-6)[GlcNAc(b1-3)]Gal(b1-4)GlcNAc
# Procedure, shortened: as §1
# [15] = target: GlcNAc(b1-3)GalNAc
# Procedure, shortened: as §1
# [16] = target: GlcNAc(b1-3)Man
# Procedure, shortened: as §1
# [17] = target: GlcNAc(b1-3)[GlcNAc(b1-4)][GlcNAc(b1-6)]GlcNAc
# Procedure, shortened: as §1
# [18] = target: GlcNAc(b1-3)[GlcNAc(b1-6)]Gal(b1-4)GlcNAc
# Procedure, shortened: as §1
# [19] = target: GlcNAc(b1-3)[GlcNAc(b1-6)]GalNAc
# Procedure, shortened: as §1
# [20] = target: GlcNAc(b1-4)Gal(b1-4)GlcNAc
# Procedure, shortened: as §1
# [21] = target: GlcNAc(b1-4)GlcNAc
# Procedure, shortened: as §1
# [22] = target: GlcNAc(b1-4)GlcNAc(b1-4)GlcNAc
# Procedure, shortened: as §1
# [23] = target: GlcNAc(b1-4)GlcNAc(b1-4)GlcNAc(b1-4)GlcNAc(b1-4)GlcNAc
# Procedure, shortened: as §1
# [24] = target: GlcNAc(b1-4)GlcNAc(b1-4)GlcNAc(b1-4)GlcNAc(b1-4)GlcNAc(b1-4)GlcNAc
# Procedure, shortened: as §1
# [25] = target: GlcNAc(b1-4)[GlcNAc(b1-6)]GalNAc
# Procedure, shortened: as §1
# [26] = target: GlcNAc(b1-6)Gal(b1-4)GlcNAc
# Procedure, shortened: as §1
# [27] = target: GlcNAc(b1-6)GalNAc
# Procedure, shortened: as §1
# [28] = target: GlcNAc6S(b1-3)Gal(b1-4)GlcNAc
# Procedure, shortened: as §1
# [29] = target: Kdn(a2-3)Gal(b1-3)GalNAc
# Procedure, shortened: as §1
# [30] = target: Kdn(a2-3)Gal(b1-3)GlcNAc
# Procedure, shortened: as §1
# [31] = target: Kdn(a2-3)Gal(b1-4)Glc
# Procedure, shortened: as §1
# [32] = target: Kdn(a2-3)Gal(b1-4)GlcNAc
# Procedure, shortened: as §1
# [33] = target: Kdn(a2-3)Gal(b1-4)[Fuc(a1-3)]GlcNAc
# Procedure, shortened: as §1
# [34] = target: Kdn(a2-6)Gal(b1-4)GlcNAc
# Procedure, shortened: as §1
# [35] = target: Man(a1-2)Man(a1-2)Man(a1-3)Man
# Procedure, shortened: as §1
# [36] = target: Man(a1-2)Man(a1-2)Man(a1-6)[Man(a1-3)]Man
# Procedure, shortened: as §1
# [37] = target: Man(a1-2)Man(a1-3)Man
# Procedure, shortened: as §1
# [38] = target: Man(a1-2)Man(a1-3)[Man(a1-2)Man(a1-6)]Man
# Procedure, shortened: as §1
binder,measurement,setting,value
B1,glycan array binding signal (z-score),[1],0.848
same,glycan array binding signal (z-score),[2],-0.141
same,glycan array binding signal (z-score),[3],-0.146
same,glycan array binding signal (z-score),[4],-0.318
same,glycan array binding signal (z-score),[5],0.006
same,glycan array binding signal (z-score),[6],-0.226
same,glycan array binding signal (z-score),[7],-0.027
same,glycan array binding signal (z-score),[8],0.133
same,glycan array binding signal (z-score),[9],-0.503
same,glycan array binding signal (z-score),[10],0.5
same,glycan array binding signal (z-score),[11],0.148
same,glycan array binding signal (z-score),[12],0.223
same,glycan array binding signal (z-score),[13],-0.227
same,glycan array binding signal (z-score),[14],-0.086
same,glycan array binding signal (z-score),[15],-0.484
same,glycan array binding signal (z-score),[16],-0.188
same,glycan array binding signal (z-score),[17],-0.192
same,glycan array binding signal (z-score),[18],-0.304
same,glycan array binding signal (z-score),[19],-0.544
same,glycan array binding signal (z-score),[20],-0.193
same,glycan array binding signal (z-score),[21],-0.421
same,glycan array binding signal (z-score),[22],-0.575
same,glycan array binding signal (z-score),[23],-0.452
same,glycan array binding signal (z-score),[24],0.044
same,glycan array binding signal (z-score),[25],-0.019
same,glycan array binding signal (z-score),[26],0.154
same,glycan array binding signal (z-score),[27],0.492
same,glycan array binding signal (z-score),[28],-0.262
same,glycan array binding signal (z-score),[29],-0.434
same,glycan array binding signal (z-score),[30],-0.316
same,glycan array binding signal (z-score),[31],-0.005
same,glycan array binding signal (z-score),[32],-0.185
same,glycan array binding signal (z-score),[33],-0.264
same,glycan array binding signal (z-score),[34],-0.417
same,glycan array binding signal (z-score),[35],-0.468
same,glycan array binding signal (z-score),[36],-0.281
same,glycan array binding signal (z-score),[37],0.048
same,glycan array binding signal (z-score),[38],0.074
